In PMC5473941, “Cryo-EM Reveals How Human Cytoplasmic Dynein Is Auto-inhibited and Activated” (Cell, 2017):

Target: the molecule itself
Experiment: cryo-EM structure; phi-particle of full-length dynein; freshly purified dynein at about 0.15 mg/ml in GF150 (25 mM HEPES pH 7.4, 150 mM KCl, 1 mM MgCl2, 5 mM DTT, 0.1 mM ATP) on carbon-coated gold grids; whole particle 15 Å, tail 8.4 Å, motor domain dimer 3.8 Å

B1: human dynein light chain Robl, as a subunit of the dynein complex (natural protein)
chain: not shown
notes: dynein light chain Robl/LC7 (DYNLRB1), human; Stood in the assays within the whole dynein complex; also called LC7; DYNLRB1; source: Sf9, co-expressed and purified as part of the dynein complex (IgG Sepharose, TEV cleavage, SEC)
binding result: binds
